This note sets out measurements from the RNAGym collection of RNA variant scans (doi:10.7554/elife.90254).

To fix the notation:
B1: LINE1-mini (parent)
chain: GGCAGAGCUCAACACAGCGUGGCAAAGUGGCUGUGGCUAGACUGCC

Read counts are not given, so values of variants with three or more changes are uncertain.

In this data set the parent is B1. The experiment in a line: self-cleavage, relative activity (ratio to wild type); higher = more cleavage; in vitro, sequencing; the parent is a self-cleaving ribozyme.
On to GGCAGAGCUCAACACAGCGUGGCAAAGUGGAUUUGGCUAUACUGUC, for which the self-cleavage turned out to be 0.14.

GGCAGAGCUCAACACAGCGUGGCAAAGUGGGUGUGGCUAUACUGCA: the self-cleavage turned out to be 0.11. With GGCAGAGCUCAACACAGCGUGGCAAAGUGGUUGUGGCUAGCCUGCU the figure was 0.01; with GGCAGAGCUCAACACAGCGUGGCAAAGUGGUUGUUGCUAGAUUGAC, 0; with GGCAGAGCUCAACACAGCGUGGCAAAGUGUCUGUGGCUAGACUGUA, 0.12.

As for GGCAGAGCUCAACACAGCGUGGCAAAGUGUCUGCGGCUAGACUGCU, the self-cleavage amounted to 0.09. In the case of GGCAGAGCUCAACACAGCGUGGCAAAGUGGUUUUGGCUAGACUUCC, the self-cleavage came out at 0.04. With GGCAGAGCUCAACACAGCGUGGCAAAGUGGGUGGGGCUAGACUCCC the figure was 0.02. Consider GGCAGAGCUCAACACAGCGUGGCAAAGUGCCUGUAGCUAGGCUGCC, for which the self-cleavage is 0.07. With GGCAGAGCUCAACACAGCGUGGCAAAGUGUCAGUGACUAAACUGCC the figure was 0.01; with GGCAGAGCUCAACACAGCGUGGCAAAGUGGAUGUGGGUAGACUACC, 0.01. As to GGCAGAGCUCAACACAGCGUGGCAAAGUGGCAGUGGUUAGACUGAC, the self-cleavage was determined as 0.01.

On to GGCAGAGCUCAACACAGCGUGGCAAAGUGUCUGUGGAUAGCCUGCG, for which the self-cleavage turned out to be 0.01.

With GGCAGAGCUCAACACAGCGUGGCAAAGUGUCAGUCGCUAGACUGCC, the self-cleavage is 0.04.

Take GGCAGAGCUCAACACAGCGUGGCAAAGUGACAGAGGCUAGCCUUCC: the self-cleavage stood at 0.01. Turning to GGCAGAGCUCAACACAGCGUGGCAAAGUGGUUGUCGCUAGAGUGCC, the self-cleavage turned out to be 0.03. In the case of GGCAGAGCUCAACACAGCGUGGCAAAGUGGAGGUAGCUAGACUGCC, the self-cleavage stood at 0.05. With GGCAGAGCUCAACACAGCGUGGCAAAGUGGCCCUGGCUAGGCUGCC the figure was 0.04. For the variant GGCAGAGCUCAACACAGCGUGGCAAAGUGGUUGACGCUAGACUGCC, the self-cleavage came to 0.02.

GGCAGAGCUCAACACAGCGUGGCAAAGUGUCUGUGGCUAGAAGGCC: the self-cleavage is 0.02.

Take GGCAGAGCUCAACACAGCGUGGCAAAGUGGCGGUGGCUAGAACGCA: the self-cleavage was found to be 0.05.

With GGCAGAGCUCAACACAGCGUGGCAAAGUGGUUGCGGCCAGACUGCC, the self-cleavage turned out to be 0.03.

In the case of GGCAGAGCUCAACACAGCGUGGCAAAGUGGCAGUGGUUAGUCUGCC, the self-cleavage was determined as 0.03.

With GGCAGAGCUCAACACAGCGUGGCAAAGUGUCUGUGUCUAUACUGCC, the self-cleavage turned out to be 0.1.

In the case of GGCAGAGCUCAACACAGCGUGGCAAAGUGGAUGUGGUUAGAAUGCC, the self-cleavage came out at 0.07.

Regarding GGCAGAGCUCAACACAGCGUGGCAAAGUGGUUGUGGCUUGACGUCC, the self-cleavage was found to be 0.02. On to GGCAGAGCUCAACACAGCGUGGCAAAGUGGCAGUGGUUAUACUGCC, for which the self-cleavage worked out at 0.02. Regarding GGCAGAGCUCAACACAGCGUGGCAAAGUGGCAGUGACUUGACUGCC, the self-cleavage was found to be 0.03.

Turning to GGCAGAGCUCAACACAGCGUGGCAAAGUGGAUGUGGUUAGCCUGCC, the self-cleavage is 0.02. On to GGCAGAGCUCAACACAGCGUGGCAAAGUGGCAGUGGCUAGACCGCU, for which the self-cleavage was 0. In the case of GGCAGAGCUCAACACAGCGUGGCAAAGUGGAUGUGGCUAGCCUUCC, the self-cleavage came out at 0.03. With GGCAGAGCUCAACACAGCGUGGCAAAGUGGAUGUAGCUACACUACC the figure was 0; with GGCAGAGCUCAACACAGCGUGGCAAAGUGUCGGUAGCUAGACUGCC, 0.03; with GGCAGAGCUCAACACAGCGUGGCAAAGUGGCGGUCUCUGGACUGCC, 0.02. On to GGCAGAGCUCAACACAGCGUGGCAAAGUGCCUGUGACUAGGCUGCC, for which the self-cleavage turned out to be 0.12.

As for GGCAGAGCUCAACACAGCGUGGCAAAGUGGCAGUUGCUAGACUGCA, the self-cleavage was 0.07.

As for GGCAGAGCUCAACACAGCGUGGCAAAGUGUAGGUGCCUAGACUGCC, the self-cleavage amounted to 0.06. For GGCAGAGCUCAACACAGCGUGGCAAAGUGCUUGUGGUUAAACUUCC, the self-cleavage turned out to be 0.01. The value for GGCAGAGCUCAACACAGCGUGGCAAAGUGGCGGUGGCUAGCCCCCC was 0.05. With GGCAGAGCUCAACACAGCGUGGCAAAGUGGCAGUGACUAUACUGCC the figure was 0.17; with GGCAGAGCUCAACACAGCGUGGCAAAGUGGGUGCCGCUAGACUUCC, 0.04. For GGCAGAGCUCAACACAGCGUGGCAAAGUGCCUGUGGGUAGACUGCA, the self-cleavage is 0.04. On to GGCAGAGCUCAACACAGCGUGGCAAAGUGACAUUGGCUAGACUGCC, for which the self-cleavage was found to be 0.05. The value for GGCAGAGCUCAACACAGCGUGGCAAAGUGGGUUUGGCUAGACUGCG was 0.05; that for GGCAGAGCUCAACACAGCGUGGCAAAGUGGGUGUGGAAAGACUGCC was 0.04; that for GGCAGAGCUCAACACAGCGUGGCAAAGUGGCAGUGGCUAGCUUGCC was 0.08.

Take GGCAGAGCUCAACACAGCGUGGCAAAGUGGCGGUGGCUAGACUGUA: the self-cleavage is 0.07. Regarding GGCAGAGCUCAACACAGCGUGGCAAAGUGGCAGUGGUAAGACUGCC, the self-cleavage was found to be 0.07. With GGCAGAGCUCAACACAGCGUGGCAAAGUGACUGUGGCCACACUGCC, the self-cleavage came out at 0.05. The value for GGCAGAGCUCAACACAGCGUGGCAAAGUGGUUGUAACUAGGCUGCU was 0.02; that for GGCAGAGCUCAACACAGCGUGGCAAAGUGUCUGUGGCUAGCCUUCC was 0.04; that for GGCAGAGCUCAACACAGCGUGGCAAAGUGGGUGUGGCAAGAUUGCC was 0.12. Regarding GGCAGAGCUCAACACAGCGUGGCAAAGUGCCUGUGGCUAUUCUGUC, the self-cleavage was 0.12.

As for GGCAGAGCUCAACACAGCGUGGCAAAGUGGCAGUGCCCAGACUUCC, the self-cleavage amounted to 0.03. With GGCAGAGCUCAACACAGCGUGGCAAAGUGUCCGUGGCUCGACUGCC the figure was 0.03. With GGCAGAGCUCAACACAGCGUGGCAAAGUGACUGCGGCUGGACUGCC the figure was 0.05. In the case of GGCAGAGCUCAACACAGCGUGGCAAAGUGACGGUGGCUAGGCUGCC, the self-cleavage stood at 0.19.

On to GGCAGAGCUCAACACAGCGUGGCAAAGUGGCAGUGGCGAGCGUGCC, for which the self-cleavage amounted to 0.03. With GGCAGAGCUCAACACAGCGUGGCAAAGUGUCUGUGGCUAUAUUGUC the figure was 0.06; with GGCAGAGCUCAACACAGCGUGGCAAAGUGGCCGCGGCUAGACUGUC, 0.02; with GGCAGAGCUCAACACAGCGUGGCAAAGUGGAUGUGGCUCGAAUGCC, 0. With GGCAGAGCUCAACACAGCGUGGCAAAGUGGCAGAGACUAGACUGCC, the self-cleavage amounted to 0.03. With GGCAGAGCUCAACACAGCGUGGCAAAGUGCCUGAGGCCAGACUGCC the figure was 0.03. With GGCAGAGCUCAACACAGCGUGGCAAAGUGGCGGUGGCUGGACUGAC the figure was 0.09; with GGCAGAGCUCAACACAGCGUGGCAAAGUGGCAGGGGCUAGAAUGCC, 0.02.

Regarding GGCAGAGCUCAACACAGCGUGGCAAAGUGUCCGUCCCUAGACUGCC, the self-cleavage is 0.03. The value for GGCAGAGCUCAACACAGCGUGGCAAAGUGGGUGUCGCUAGUCUGCC was 0.03. As for GGCAGAGCUCAACACAGCGUGGCAAAGUGCCUGUGGCUAAAUUGCC, the self-cleavage is 0.15. The value for GGCAGAGCUCAACACAGCGUGGCAAAGUGUGUGUCGCUAGACUGCC was 0.08.

For GGCAGAGCUCAACACAGCGUGGCAAAGUGGCGCUGGCUAGACUGUC, the self-cleavage was 0.13.

In the case of GGCAGAGCUCAACACAGCGUGGCAAAGUGUGUGUGGGUAGACUGCC, the self-cleavage was determined as 0.04. With GGCAGAGCUCAACACAGCGUGGCAAAGUGACUGUGGCUACACCGCC the figure was 0.05. With GGCAGAGCUCAACACAGCGUGGCAAAGUGGCAGUGUCCAGACUGUC the figure was 0.01; with GGCAGAGCUCAACACAGCGUGGCAAAGUGUCUGGGGCUUCACUGCC, 0.01.

As for GGCAGAGCUCAACACAGCGUGGCAAAGUGGCAGUGCCUAGACUGUC, the self-cleavage was 0.06. Consider GGCAGAGCUCAACACAGCGUGGCAAAGUGGCAGUAGCUAUACUGCC, for which the self-cleavage amounted to 0.05. With GGCAGAGCUCAACACAGCGUGGCAAAGUGACUGUGUAUAGACUGCC the figure was 0.08; with GGCAGAGCUCAACACAGCGUGGCAAAGUGCCUGUCGGUAGACUGCC, 0.11. With GGCAGAGCUCAACACAGCGUGGCAAAGUGGGUGUGGCUAGCCUGUC, the self-cleavage is 0.05. The value for GGCAGAGCUCAACACAGCGUGGCAAAGUGGCGGUGGAUAGAUUGCA was 0.05; that for GGCAGAGCUCAACACAGCGUGGCAAAGUGGUAGUGGAAAGGCUGCC was 0.06. For the variant GGCAGAGCUCAACACAGCGUGGCAAAGUGGUUGUGGCAAGAGUGCC, the self-cleavage is 0.03. With GGCAGAGCUCAACACAGCGUGGCAAAGUGGAUGUGACUAGAAUGCC the figure was 0.04. On to GGCAGAGCUCAACACAGCGUGGCAAAGUGGGUGGGGCUAGAAUGCC, for which the self-cleavage worked out at 0.02. The value for GGCAGAGCUCAACACAGCGUGGCAAAGUGACAGUGGCUAUACUGCC was 0.03. Consider GGCAGAGCUCAACACAGCGUGGCAAAGUGACUGUGGCUACACUGCA, for which the self-cleavage stood at 0.12. The value for GGCAGAGCUCAACACAGCGUGGCAAAGUGGAGGUGGCAAGACUGCC was 0.02; that for GGCAGAGCUCAACACAGCGUGGCAAAGUGUCGGUGGCUAGACUGUC was 0.02; that for GGCAGAGCUCAACACAGCGUGGCAAAGUGGCCGUGGACAGACUGUC was 0.

Regarding GGCAGAGCUCAACACAGCGUGGCAAAGUGCACGUGGCUAGACUGCC, the self-cleavage amounted to 0.06. Consider GGCAGAGCUCAACACAGCGUGGCAAAGUGGGUGUUGCUGGACUGCC, for which the self-cleavage was found to be 0.03. Take GGCAGAGCUCAACACAGCGUGGCAAAGUGGGUCUGGCUAUACUCCC: the self-cleavage is 0.03. Turning to GGCAGAGCUCAACACAGCGUGGCAAAGUGCCUGUGGCUCGGCUGCC, the self-cleavage was found to be 0.11. In the case of GGCAGAGCUCAACACAGCGUGGCAAAGUGGUUGUUGCUAGCCUGCC, the self-cleavage stood at 0. GGCAGAGCUCAACACAGCGUGGCAAAGUGCCGGUGGCUAGACUGCA: the self-cleavage turned out to be 0.06. For the variant GGCAGAGCUCAACACAGCGUGGCAAAGUGGUUGUGACUCGACUGCC, the self-cleavage was determined as 0.02. The value for GGCAGAGCUCAACACAGCGUGGCAAAGUGGCACUAGCUAGACUGCC was 0.07. With GGCAGAGCUCAACACAGCGUGGCAAAGUGGGUGUGAAUAGACUGCC the figure was 0.03; with GGCAGAGCUCAACACAGCGUGGCAAAGUGGAUAAAGCUAGCAAGCG, 0.03.

Turning to GGCAGAGCUCAACACAGCGUGGCAAAGUGGUUGAGAGUAGACUGCC, the self-cleavage amounted to 0.01. Consider GGCAGAGCUCAACACAGCGUGGCAAAGUGCCUGAGGCUAGACAGCC, for which the self-cleavage came to 0.31. The value for GGCAGAGCUCAACACAGCGUGGCAAAGUGACUGUGCCAAGACUGCC was 0.13. With GGCAGAGCUCAACACAGCGUGGCAAAGUGGAUGUGGCUUGAAGGCC the figure was 0.01; with GGCAGAGCUCAACACAGCGUGGCAAAGUGGCGGUAGAUACACUGCC, 0.12; with GGCAGAGCUCAACACAGCGUGGCAAAGUGGUUGUCGAUAGACUGCC, 0.12. For the variant GGCAGAGCUCAACACAGCGUGGCAAAGUGGCGGUGGCUUGACUGAC, the self-cleavage was 0.04. As for GGCAGAGCUCAACACAGCGUGGCAAAGUGGAUGUGGCUAGAAAGUC, the self-cleavage was found to be 0.05. Take GGCAGAGCUCAACACAGCGUGGCAAAGUGGACGGGGCUAGACUGCC: the self-cleavage came out at 0.04. With GGCAGAGCUCAACACAGCGUGGCAAAGUGUCUGUGGAUAGACCGCC the figure was 0.02. In the case of GGCAGAGCUCAACACAGCGUGGCAAAGUGGCACAGGCUAGACUGCC, the self-cleavage is 0.01. As for GGCAGAGCUCAACACAGCGUGGCAAAGUGCCUCUGGCUAGACUCCC, the self-cleavage worked out at 0.04. Regarding GGCAGAGCUCAACACAGCGUGGCAAAGUGUCUGUGGCUAGCCUGCG, the self-cleavage stood at 0.01.
